The values that follow come from PubChem BioAssay AID360 (National Center for Advancing Translational Sciences (NCATS), 2006).

Among all 48,000 compounds or so, about 550 (1.1%) were called active. About 4% were inconclusive and are not listed. No stated cut-off is given here; in the data, active means potency below about 15 µM; inconclusive means mostly about 16 µM to 33 µM; inactive means weaker than that. The list shows a part of the results.
Potency means the concentration at half of the fitted maximal effect.

UniProt P04062, sequence (P04062 whole entry, looked up): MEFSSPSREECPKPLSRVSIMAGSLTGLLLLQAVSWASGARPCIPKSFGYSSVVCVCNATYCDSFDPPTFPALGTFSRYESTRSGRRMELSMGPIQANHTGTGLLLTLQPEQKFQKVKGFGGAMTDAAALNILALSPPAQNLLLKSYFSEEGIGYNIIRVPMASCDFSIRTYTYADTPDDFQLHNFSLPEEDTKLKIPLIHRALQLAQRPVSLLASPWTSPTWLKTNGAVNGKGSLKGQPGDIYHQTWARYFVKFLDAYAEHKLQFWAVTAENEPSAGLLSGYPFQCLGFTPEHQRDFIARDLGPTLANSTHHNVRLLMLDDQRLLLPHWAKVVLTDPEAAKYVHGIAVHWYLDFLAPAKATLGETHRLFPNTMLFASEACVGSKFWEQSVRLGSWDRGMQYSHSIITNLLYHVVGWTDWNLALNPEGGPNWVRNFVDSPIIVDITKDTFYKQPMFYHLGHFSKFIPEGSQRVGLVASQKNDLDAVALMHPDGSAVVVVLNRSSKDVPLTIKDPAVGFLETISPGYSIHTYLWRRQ

The test addresses Lysosomal acid glucosylceramidase (Homo sapiens) (UniProt P04062). Put plainly: Glucocerebrosidase.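 Further: the screen sought inhibitors.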 The note with it: purified enzyme, resorufin glucoside fluorescence (screen aimed at inhibitors), 20 min; series mostly up to 77 µM. In a few lines:
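Compounds titrated against 0.2 nM normal enzyme, 30 uM resorufin beta-D-glucopyranoside substrate, citrate/phosphate buffer with taurocholate and tween-20, pH 5.9. Reaction ran 20 min at room temperature; fluorescence (Ex 548/Em 600) gave AC50.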
As for `CCOC(=O)c1cnn(CCOC(=O)c2cccs2)c1NC(=O)c1cccs1`, the Potency is inactive: > 76.9 µM.

On to `Nc1cc(=O)[nH]c(SCC(=O)NCC2CCCO2)n1` (stereo unspecified), for which the Potency is inactive: > 76.9 µM. For `COc1ccc(-n2ncc3c(N4CCc5ccccc54)ncnc32)cc1` the value was inactive: > 76.9 µM; for `CCCCNC(=O)CCCn1c(=O)[nH]c2ccc(Br)cc2c1=O`, “inactive”; for `COc1ccc(-n2nnnc2SCC(=O)Nc2ccc3c(c2)OCCO3)cc1OC`, inactive: > 76.9 µM. For `Brc1ccccc1-c1nnc(CSc2nncn2-c2ccccc2)o1` the value was inactive: > 76.9 µM. For `CCOc1ccccc1NC(=O)CCC(=O)O` the value was inactive: > 76.9 µM. With `CCn1nnnc1SCC(=O)Nc1cccc(C)n1`, the Potency is inactive: > 76.9 µM.

Consider `CCC(=O)Nc1c(-c2ccc(OC)cc2)c(=O)c2ccccc2n1C`, for which the Potency is inactive: > 76.9 µM.

With `CC(=O)N1CCCc2cc(S(=O)(=O)N3CCc4ccccc4C3)ccc21`, the Potency is inactive: > 76.9 µM. For `Cc1ccc(NCc2nnc(SCC(N)=O)n2CCc2ccccc2)cc1` the value was inactive: > 76.9 µM; for `OCCNc1ncnc2c1ncn2Cc1ccccc1`, inactive: > 76.9 µM. `CCc1cc2cc(C)cc(C)c2nc1SCC(=O)N1CCN(C(=O)c2ccco2)CC1`: the Potency was inactive: > 76.9 µM. For `CCNc1cccc2c1C(=O)N(C)C2=O` the value was inactive: > 76.9 µM. For `CCOC(=O)C1(CC)CC(CSc2nc3ccccc3[nH]2)OC1=O` (stereo unspecified) the value was inactive: > 76.9 µM.

For the compound `CC1CCCN(c2nc3c(c(=O)n(C)c(=O)n3C)n2CCSc2nc3ccccc3s2)C1` (stereo unspecified), the Potency is inactive: > 76.9 µM. For `COC(=O)c1nnn(CC(=O)Nc2cccc(OC)c2)c1C(=O)OC` the value was inactive: > 76.9 µM.

As for `COC(=O)c1ccc(OCC2c3cc(OC)c(OC)cc3CCN2C(=O)c2ccco2)cc1` (stereo unspecified), the Potency was inactive: > 76.9 µM. With `CC(C)c1nc(-c2c(N)n(C)c(=O)n(C)c2=O)sc1C(=O)C(C)(C)C`, the Potency was inactive: > 76.9 µM. For `CCOC(=O)c1cccnc1SCC(=O)N(C)c1ccccc1` the value was inactive: > 76.9 µM; for `CN(C)C(=O)CSc1nc2ccccc2c(=O)[nH]1`, inactive: > 76.9 µM. Take `COc1ccccc1N1CCN(C(=O)CSc2nnc(NC(=O)C3CC3)s2)CC1`: the Potency was inactive: > 76.9 µM. For `Cc1ccc(N2CCN(c3ccc(C)cc3)C2c2ccccn2)cc1` the value was inactive: > 76.9 µM.

Turning to `C=CCN1C(=Nc2cccnc2)SCC1(O)c1ccc(C)cc1` (stereo unspecified), the Potency is inactive: > 76.9 µM.

Consider `CC(C)n1c(-c2cccnc2)nc2cnccc21`, for which the Potency was inactive: > 76.9 µM.

For `COc1ccc(C(=O)Nc2nnc(C(F)(F)F)s2)cc1`, the Potency is active: 3.35 µM. For `Cc1ccc(N2CCCCn3c2nc2c3c(=O)n(CC(=O)O)c(=O)n2C)cc1` the value was inactive: > 76.9 µM; for `CCOC(=O)c1c(NC(=O)CSc2nnc(CNc3ccc(OC)cc3)n2C)sc(C)c1C`, “inactive”; for `CCN(CC)C(=O)CSc1nnc(-c2ccccc2)n1N`, inactive: > 76.9 µM. For `c1ccc(Cc2nnc3sc(-c4ccccn4)nn23)cc1` the value was inactive: > 76.9 µM; for `CC1(C)CC(CCC(=O)Nc2ccccc2Cl)C(=O)O1` (stereo unspecified), inactive: > 76.9 µM. On to `COC(=O)c1ccc2c(c1)N(Cc1nc(-c3cccc(Cl)c3)oc1C)C(=O)C1CCCN21` (stereo unspecified), for which the Potency was inactive: > 76.9 µM. For `COc1cc(C2=Nc3c(c(C)nn3-c3ccccc3)P(=O)(N3CCOCC3)O2)cc(OC)c1OC` (stereo unspecified) the value was inactive: > 76.9 µM; for `O=C(COn1nnc2ccc(Cl)cc21)NCc1ccccc1`, inactive: > 76.9 µM. For `O=c1c2ccccc2nc(COc2ccccc2)n1/N=C/c1ccco1` the value was inactive: > 76.9 µM. For `O=C(CSc1ccccc1C(=O)O)Nc1cccc(C(=O)O)c1`, the Potency was inactive: > 76.9 µM.

As to `O=C(c1ccco1)N1CCN(C(c2ccccn2)c2nnnn2C2CCCC2)CC1` (stereo unspecified), the Potency is inactive: > 76.9 µM. For `O=C(NC1CCCCCC1)C1CCN(S(=O)(=O)N2CCC3(CC2)OCCO3)CC1` the value was inactive: > 76.9 µM; for `O=C(Nc1ccc2c(c1)OCO2)NC1CCN(Cc2ccccc2)CC1`, inactive: > 76.9 µM; for `COc1cc(C2C(C(=O)c3ccc(C)o3)=C(O)C(=O)N2c2cc(C)on2)cc(Br)c1O` (stereo unspecified), inactive: > 76.9 µM. For `O=C(CN1C(=O)C2C3C=CC(C3)C2C1=O)NCCC1=CCCCC1` (stereo unspecified) the value was inactive: > 76.9 µM.

Take `O=c1c2ccccc2nc(-c2ccco2)n1Cc1ccccc1`: the Potency was inactive: > 76.9 µM. For `O=C(Nc1ccccc1C(=O)NCc1ccc(Cl)cc1)c1ccco1` the value was inactive: > 76.9 µM; for `COc1ccc(CCn2c(-n3nc(C)cc3C)nc3c2c(=O)[nH]c(=O)n3C)cc1`, inactive: > 76.9 µM.

As to `C=CCc1cccc(CNc2nc3ccccc3n2CCN2CCOCC2)c1O`, the Potency is inactive: > 76.9 µM. With `CN(C)c1nc(SCCOC(=O)Nc2ccccc2)nc(N(C)C)n1`, the Potency was inactive: > 76.9 µM. For `CCOc1cccc(NC(=O)C(Cc2cccs2)c2nn[nH]n2)c1` (stereo unspecified) the value was inactive: > 76.9 µM; for `Cc1c(C)n(C(=O)CN2CCC(C(N)=O)CC2)c2ccccc12`, “inactive”; for `Cn1nnc2c(N3CCCCC3)nccc21`, inactive: > 76.9 µM. For `C=CCNC(=O)C1CCN(c2nc(C)cc(-c3ccccc3)n2)CC1` the value was inactive: > 76.9 µM; for `CCOC(=O)CSc1nnc(-c2ccoc2C)n1-c1ccc(OCC)cc1`, inactive: > 76.9 µM. Turning to `CC1CC(C)CN(CCCNC(=O)C2CCN(S(=O)(=O)N3CCCCC3)CC2)C1` (stereo unspecified), the Potency was inactive: > 76.9 µM. For the compound `COC(=O)c1cccc(N(C(=O)CNC(=O)c2ccco2)C(C(=O)NC2CCCC2)c2ccco2)c1` (stereo unspecified), the Potency is inactive: > 76.9 µM.

As for `CCC(c1nnnn1C1CCCC1)N1CCN(C(=O)c2ccco2)CC1` (stereo unspecified), the Potency is inactive: > 76.9 µM.

As to `Cc1ccc(C)n1/N=C1/NC(=O)CS1`, the Potency was inactive: > 76.9 µM. For `CC1CN(C(=O)CSc2ncnc3sccc23)CC(C)O1` (stereo unspecified) the value was inactive: > 76.9 µM; for `NC(=O)c1cnn2c1NC(c1ccc(F)cc1)CC2C(F)(F)F` (stereo unspecified), inactive: > 76.9 µM. For `CCc1ccc(N(CC(=O)NC)S(C)(=O)=O)cc1` the value was inactive: > 76.9 µM.

In the case of `Nc1nnc(CCN2C(=O)CSC2=O)s1`, the Potency was inactive: > 76.9 µM. For `CCN(CC)C(=O)CSc1nnc([C@@H](N)Cc2ccccc2)o1` the value was inactive: > 76.9 µM; for `CCOC(=O)C1C(=O)NC(SCC(=O)OC)=C(C#N)C1c1ccccc1OCC` (stereo unspecified), inactive: > 76.9 µM; for `O=C(CN1CCN(c2ccc(F)cc2)CC1)Nc1ccc(-n2cnnn2)cc1`, inactive: > 76.9 µM. For the compound `Cc1ccc(C2CC(=O)NC3=C2C(=O)CCC3)cc1Br` (stereo unspecified), the Potency is inactive: > 76.9 µM. For `N#Cc1sc2nc3c(c(-c4ccco4)c2c1N)CCCC3` the value was inactive: > 76.9 µM; for `Cc1cc(C(=O)N2CCN(c3cccc(Cl)c3)CC2)c(C)o1`, inactive: > 76.9 µM; for `CN1CCc2c(sc3nc(SCC(=O)N4CCOCC4)nc(N)c23)C1`, inactive: > 76.9 µM.

With `CCOC(=O)N1CCN(C(=O)CS(=O)(=O)c2cn(Cc3ccccc3C)c3ccccc23)CC1`, the Potency result is “inactive”. For `Cc1nc(NCCN2CCOCC2)c2nnn(Cc3ccccc3Cl)c2n1` the value was inactive: > 76.9 µM; for `CC(=O)c1sc2nc(SCC(=O)N3CCCCC3)[nH]c(=O)c2c1C`, inactive: > 76.9 µM; for `CCc1nc2ccccc2c(C(=O)OCC(=O)NCCCN2CCCC2=O)c1C`, inactive: > 76.9 µM. Regarding `CSCCC(NC(=O)C1CCC(C)CC1)C(=O)NCCN1CCOCC1` (stereo unspecified), the Potency was inactive: > 76.9 µM. For `CC(N)C12CC3CC(C1)CC(C(C)N)(C3)C2` (stereo unspecified) the value was inactive: > 76.9 µM; for `CCOc1ccc(NC(=O)c2ccc(F)c(S(=O)(=O)N3CCN(c4ccccn4)CC3)c2)cc1`, “inactive”; for `CCN1CCc2c(sc(NC(=O)c3ccc(S(=O)(=O)N4CCOCC4)cc3)c2C(=O)OC)C1`, inactive: > 76.9 µM. For `O=C(O)C1NCCc2ccccc21` (stereo unspecified) the value was inactive: > 76.9 µM; for `c1ccc(Cn2nnnc2CN2CCCC2)cc1`, inactive: > 76.9 µM. In the case of `COCCn1nnnc1C(c1cc2ccc(OC)cc2[nH]c1=O)N1CCN(C2CCCCC2)CC1` (stereo unspecified), the Potency is inactive: > 76.9 µM.

Take `Cc1cc2c(=O)n(C)c(SCC(=O)c3cc4ccccc4o3)nc2s1`: the Potency was inactive: > 76.9 µM.

For `COc1ccc(-c2[nH]nc3c2C(c2ccccc2OC(=O)N2CCOCC2)C(C#N)=C(N)O3)cc1` (stereo unspecified), the Potency was inactive: > 76.9 µM.

As to `CCn1c(COc2cccc(OC)c2)nnc1SCC(=O)Nc1ccccc1C(=O)OC`, the Potency is inactive: > 76.9 µM.

For the compound `CCOC(=O)c1ccc(NC(=O)CSC2=NC(=O)C(CC)C(=O)N2)cc1` (stereo unspecified), the Potency was inactive: > 76.9 µM.

On to `c1ccc2c(c1)CC1(CCCC1)n1nnnc1-2`, for which the Potency is inactive: > 76.9 µM. For `CCOC(=O)C1C(=O)NC(C)C1c1ccccc1` (stereo unspecified) the value was inactive: > 76.9 µM; for `COc1ccc(OC)c(S(=O)(=O)Nc2ccccc2F)c1`, inactive: > 76.9 µM. For `Nc1n[nH]c(S(=O)(=O)CCCc2ccccc2)n1` the value was inactive: > 76.9 µM; for `C=CCn1c(NCCOC)nc2c1c(=O)n(C)c(=O)n2C`, inactive: > 76.9 µM; for `CCOC(=O)c1cc(-c2cccnc2)nn1-c1ccccn1`, inactive: > 76.9 µM.

Turning to `CC(=O)c1c(C)[nH]c(C(=O)N2CCN(C(=O)c3ccco3)CC2)c1C`, the Potency was inactive: > 76.9 µM.

Regarding `O=C(CSc1nc2ccccc2c(=O)n1CCCC(=O)N1CCCC1)NCc1ccco1`, the Potency is inactive: > 76.9 µM. For `Cc1ccccc1NC(=O)c1cc(S(=O)(=O)N2CCOCC2)cs1` the value was inactive: > 76.9 µM; for `CCn1cc(S(=O)(=O)CC(=O)Nc2cc(C)on2)c2ccccc21`, inactive: > 76.9 µM.
